Reference: patent US20260035431A1 (CAVALRY BIOSCIENCES, published 2026)

B1: IGF-1 E3R (ligand)
chain: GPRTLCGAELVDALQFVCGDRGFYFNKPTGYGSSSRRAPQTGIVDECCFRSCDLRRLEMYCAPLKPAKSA
B2: IGF-1 E3R F49L (ligand)
chain: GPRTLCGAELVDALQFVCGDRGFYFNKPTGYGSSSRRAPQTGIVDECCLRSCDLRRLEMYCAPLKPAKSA
B3: IGF-1 F49L (ligand)
chain: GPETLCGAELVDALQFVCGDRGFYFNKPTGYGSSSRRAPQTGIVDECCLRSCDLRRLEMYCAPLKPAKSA
B4: IGF-1 E3R D12A (ligand)
chain: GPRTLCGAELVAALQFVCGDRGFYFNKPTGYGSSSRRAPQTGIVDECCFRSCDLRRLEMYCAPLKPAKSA
B5: IGF-1 E3R D20A (ligand)
chain: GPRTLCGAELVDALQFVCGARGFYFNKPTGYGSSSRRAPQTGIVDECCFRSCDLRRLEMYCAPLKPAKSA
B6: IGF-1 E3R L54A (ligand)
chain: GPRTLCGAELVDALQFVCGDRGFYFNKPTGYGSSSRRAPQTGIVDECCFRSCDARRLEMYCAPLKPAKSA

Each binder was assayed against T1, IGF1 receptor (IGF1R) on DU145 cells or immortalized human meibomian gland epithelial cells (human, UniProt P08069 31-1367) (assay: cell-based or functional assay).
T1 sequence (P08069 31-1367): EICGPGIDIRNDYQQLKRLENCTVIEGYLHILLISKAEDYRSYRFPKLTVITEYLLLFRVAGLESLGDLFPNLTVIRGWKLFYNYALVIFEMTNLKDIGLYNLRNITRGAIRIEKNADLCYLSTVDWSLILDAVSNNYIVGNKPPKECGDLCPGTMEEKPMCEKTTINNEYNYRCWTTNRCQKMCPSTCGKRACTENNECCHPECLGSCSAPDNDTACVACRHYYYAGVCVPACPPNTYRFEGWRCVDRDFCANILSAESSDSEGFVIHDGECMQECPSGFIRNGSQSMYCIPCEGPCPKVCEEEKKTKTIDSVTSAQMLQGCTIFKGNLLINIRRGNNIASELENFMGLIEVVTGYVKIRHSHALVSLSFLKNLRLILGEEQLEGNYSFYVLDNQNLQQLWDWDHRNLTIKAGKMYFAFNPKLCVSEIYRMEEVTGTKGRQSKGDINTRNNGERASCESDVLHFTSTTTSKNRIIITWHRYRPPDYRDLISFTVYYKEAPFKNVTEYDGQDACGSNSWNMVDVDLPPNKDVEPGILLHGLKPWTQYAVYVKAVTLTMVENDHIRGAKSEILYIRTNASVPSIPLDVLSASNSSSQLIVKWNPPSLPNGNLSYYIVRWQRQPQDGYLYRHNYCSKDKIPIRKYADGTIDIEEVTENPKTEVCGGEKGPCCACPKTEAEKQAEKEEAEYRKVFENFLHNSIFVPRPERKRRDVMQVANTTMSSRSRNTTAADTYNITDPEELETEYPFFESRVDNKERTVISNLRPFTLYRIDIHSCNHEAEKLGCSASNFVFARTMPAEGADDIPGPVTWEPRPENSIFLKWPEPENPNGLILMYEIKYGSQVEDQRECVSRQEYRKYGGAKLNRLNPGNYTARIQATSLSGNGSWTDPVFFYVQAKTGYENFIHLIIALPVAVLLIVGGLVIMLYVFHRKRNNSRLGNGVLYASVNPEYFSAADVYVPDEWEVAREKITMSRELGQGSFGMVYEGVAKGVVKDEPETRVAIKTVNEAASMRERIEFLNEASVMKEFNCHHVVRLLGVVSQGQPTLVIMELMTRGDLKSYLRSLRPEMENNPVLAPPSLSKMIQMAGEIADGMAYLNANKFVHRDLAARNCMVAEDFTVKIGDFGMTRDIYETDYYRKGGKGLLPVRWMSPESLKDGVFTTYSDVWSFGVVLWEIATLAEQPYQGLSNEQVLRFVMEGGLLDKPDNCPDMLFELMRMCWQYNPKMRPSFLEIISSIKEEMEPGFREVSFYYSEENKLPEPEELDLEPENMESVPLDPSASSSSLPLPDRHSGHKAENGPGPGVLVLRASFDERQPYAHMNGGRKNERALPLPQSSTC

Binder	EC50, AKT S473 phosphorylation in DU145 cells [nM]
B1	8.6
B2	15.8

Target: T1, IGF1 receptor (IGF1R) on DU145 cells or …
Assay: cell-based or functional assay
Remark: another data set of the same source

Binder	EC50 (nM), P-AKT in DU145 cells [nM]
B3	7.5
B1	4.9
B2	5.4
B4	24.5
B5	10.3
B6	26.3

What follows are binders tested against IGFBP3 (UniProt P17936) (assay: cell-based or functional assay).
Chain of UniProt P17936 (P17936 28-291 limits assumed): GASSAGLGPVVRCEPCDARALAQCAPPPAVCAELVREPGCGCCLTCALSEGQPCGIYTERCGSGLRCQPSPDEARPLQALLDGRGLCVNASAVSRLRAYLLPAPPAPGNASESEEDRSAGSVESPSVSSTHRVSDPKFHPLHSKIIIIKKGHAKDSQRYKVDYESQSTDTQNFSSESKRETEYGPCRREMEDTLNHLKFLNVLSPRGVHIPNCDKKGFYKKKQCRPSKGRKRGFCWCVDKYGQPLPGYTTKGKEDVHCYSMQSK

Binder	% Activity compared to no IGFBP, 4x BP3 [%]
B3	10
B1	25
B2	154
B4	53
B5	39
B6	55

What follows are binders tested against T2, IGFBP2 (UniProt P18065 37-325, limits assumed) (assay: cell-based or functional assay).
T2 sequence (looked up): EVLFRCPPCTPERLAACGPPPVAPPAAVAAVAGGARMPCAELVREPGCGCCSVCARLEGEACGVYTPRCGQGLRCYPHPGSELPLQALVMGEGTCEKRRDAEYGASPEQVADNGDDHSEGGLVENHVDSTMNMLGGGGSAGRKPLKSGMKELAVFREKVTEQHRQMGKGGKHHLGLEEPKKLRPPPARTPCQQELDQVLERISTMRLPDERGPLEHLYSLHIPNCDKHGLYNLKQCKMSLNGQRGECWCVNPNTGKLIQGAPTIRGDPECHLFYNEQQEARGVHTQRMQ

Binder	% Activity compared to no IGFBP, 4x BP2 [%]
B3	130
B1	69
B2	166
B4	107
B5	106
B6	157
